{
  "source": "PubChem BioAssay AID504332",
  "about": "(National Center for Advancing Translational Sciences (NCATS), 2011)",
  "note": "About 31,000 (8.9%) of roughly 350,000 compounds were called active. Inconclusive results, whose numbers are uncertain, are shown with a selection of clear calls. Calls come from the whole dose curve; as a rule, active = well fitted inhibition curve with a large enough effect; inconclusive = small, poorly fitted or top-dose-only effect; inactive = no such curve, though single readings can be large or run the other way. Potencies of inconclusive entries are doubtful fits and often do not repeat. % is set by controls: 0 for no effect and ±100 for the full control effect; potency is the fitted concentration of half-maximal effect; tags give direction and shape of the fitted curve.",
  "data": [
    {"target": "Histone-lysine N-methyltransferase EHMT2 (Homo sapiens) (UniProt Q96KQ7)", "sequence (Q96KQ7 whole entry, looked up)": "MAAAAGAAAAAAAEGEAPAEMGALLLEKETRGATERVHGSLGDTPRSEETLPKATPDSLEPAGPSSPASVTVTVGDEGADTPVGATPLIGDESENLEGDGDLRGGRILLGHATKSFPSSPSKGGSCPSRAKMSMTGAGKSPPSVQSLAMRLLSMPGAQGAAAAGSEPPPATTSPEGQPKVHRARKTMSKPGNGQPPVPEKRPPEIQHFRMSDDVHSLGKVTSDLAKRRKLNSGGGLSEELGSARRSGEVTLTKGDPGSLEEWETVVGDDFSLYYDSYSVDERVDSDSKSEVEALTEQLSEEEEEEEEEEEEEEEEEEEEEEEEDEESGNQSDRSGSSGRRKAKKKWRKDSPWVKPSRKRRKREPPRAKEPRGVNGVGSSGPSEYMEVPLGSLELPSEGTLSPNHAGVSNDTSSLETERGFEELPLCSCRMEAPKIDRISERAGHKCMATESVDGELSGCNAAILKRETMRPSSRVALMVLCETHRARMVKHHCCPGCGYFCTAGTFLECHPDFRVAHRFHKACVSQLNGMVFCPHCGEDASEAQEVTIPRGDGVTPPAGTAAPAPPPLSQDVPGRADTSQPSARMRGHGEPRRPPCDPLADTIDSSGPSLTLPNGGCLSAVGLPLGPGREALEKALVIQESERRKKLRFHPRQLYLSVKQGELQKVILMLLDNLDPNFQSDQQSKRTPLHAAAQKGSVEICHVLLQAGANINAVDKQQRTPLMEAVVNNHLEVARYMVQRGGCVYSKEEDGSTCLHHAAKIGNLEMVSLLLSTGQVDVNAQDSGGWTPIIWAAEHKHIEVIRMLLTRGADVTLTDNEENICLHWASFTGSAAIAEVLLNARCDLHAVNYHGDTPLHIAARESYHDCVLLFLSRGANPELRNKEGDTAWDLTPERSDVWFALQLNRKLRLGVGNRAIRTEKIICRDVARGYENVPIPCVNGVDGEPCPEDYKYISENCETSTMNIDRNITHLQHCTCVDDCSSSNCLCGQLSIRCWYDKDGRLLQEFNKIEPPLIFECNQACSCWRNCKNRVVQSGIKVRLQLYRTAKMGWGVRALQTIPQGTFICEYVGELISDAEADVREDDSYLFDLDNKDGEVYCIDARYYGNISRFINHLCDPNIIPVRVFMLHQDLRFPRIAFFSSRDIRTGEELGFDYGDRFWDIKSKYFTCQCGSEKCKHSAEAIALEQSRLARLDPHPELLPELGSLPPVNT", "assay": "qHTS Assay for Inhibitors of Histone Lysine Methyltransferase G9a; note: nearly all actives have a fitted effect of over 75% in size", "settings": "G9a H3K9 monomethylation, AlphaScreen, 2 h; activity, negative = inhibition: at 59 µM (top of the series) unless noted", "outline": "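G9a (20 nM) was preincubated 15 min with compound, then reacted 2 h at room temperature with 500 nM biotin-H3K9 peptide and 20 µM SAM. Monomethyl-H3K9 detected by AlphaScreen using anti-H3K9me1 antibody.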", "values": [
      {"compound": "C/C(=N\\NC(=O)C(=O)N/N=C(\\C)c1cccc(O)c1)c1cccc(O)c1", "Potency": "inconclusive: 2.51 µM [inhibitor, partial curve, poor fit]"},
      {"compound": "Cc1ccc(C2=NN(Cc3nnc(-c4ccccc4)o3)C(=O)SC2)cc1", "activity, negative = inhibition": "inactive: 4.5% [at 102 µM]"},
      {"compound": "COCCNC(=O)Nc1ccc2nc(C)sc2c1", "Potency": "inconclusive: 22.4 µM [inhibitor, single point]"},
      {"compound": "Cc1cc(C)c(OCC(=O)Nc2nnc(C3CC3)s2)c(C)c1", "Potency": "inconclusive: 89.1 µM [inhibitor, partial curve, poor fit]"},
      {"compound": "Cc1cc(=O)c(C(=O)O)nn1-c1ccccc1F", "Potency": "inconclusive: 100 µM [inhibitor, single point]"},
      {"compound": "CN1CCN(CC(=O)Nc2ccccc2Sc2ccccc2)CC1", "Potency": "inconclusive: 3.55 µM [inhibitor, full curve, poor fit]"},
      {"compound": "Oc1ccc(-c2nc3cnccn3c2Nc2ccc3c(c2)OCCO3)cc1", "Potency": "inconclusive: 15.8 µM [inhibitor, partial curve, poor fit]"},
      {"compound": "Cc1ccccc1OCC(=O)Nc1ccc(S(=O)(=O)Nc2ncccn2)cc1", "Potency": "inconclusive: 22.4 µM [inhibitor, partial curve, poor fit]"},
      {"compound": "Cc1cc(C(=O)N/N=C/c2cc(Cl)cc([N+](=O)[O-])c2O)c2ccccc2n1", "Potency": "inconclusive: 12.6 µM [inhibitor, partial curve, poor fit]"},
      {"compound": "CCCCC1=CC2=C(c3ccco3)C(=O)C(C)(OC(=O)c3ccc(OC)cc3)C(=O)C2=CN1Cc1ccc2c(c1)OCO2", "note": "(stereo not given)", "activity, negative = inhibition": "inconclusive: -56.1% [inhibitor] [at 12.7 µM]"},
      {"compound": "O=C(CSc1c2c(nc3ccc(Cl)cc13)CCCC2)N1CCCCC1", "activity, negative = inhibition": "inactive: -3.42%"},
      {"compound": "CCCc1c(CC)c(=N)c2ccccc2n1C", "Potency": "inconclusive: 7.08 µM [inhibitor, partial curve, poor fit]"},
      {"compound": "CCOC(=O)c1nnc(-c2cccs2)nc1Oc1ccccc1C(=O)OC", "Potency": "inconclusive: 89.1 µM [inhibitor, single point]"},
      {"compound": "O=S(=O)(O)c1nc2ccccc2n1Cc1ccccc1", "Potency": "inconclusive: 50.1 µM [inhibitor, partial curve, poor fit]"},
      {"compound": "COCCNC(=O)c1cc2c3ccccc3n(C)c2s1", "Potency": "inconclusive: 89.1 µM [inhibitor, partial curve, poor fit]"},
      {"compound": "CCOC(=O)c1ccc(Nc2nc(=O)c3cccnc3s2)cc1", "Potency": "active: 28.2 µM"},
      {"compound": "COc1ccc2nc(C)cc(SCC(=O)N/N=C/c3ccc(O)c(O)c3)c2c1", "Potency": "active: 35.5 µM"},
      {"compound": "CCOC(=O)c1cc2c(ccn2C)n1CC(=O)N1CCC(Cc2ccccc2)CC1", "Potency": "active: 39.8 µM"},
      {"compound": "O=C(NNc1ccccc1)C(CCO)C(=O)NNc1ccccc1", "Potency": "inconclusive: 2.82 µM [inhibitor, full curve, poor fit]"},
      {"compound": "CN(CC(=O)Nc1cccc(F)c1)CC(=O)N1CCc2ccccc21", "Potency": "inconclusive: 20 µM [inhibitor, single point]"},
      {"compound": "COc1ccc(CNC(=O)C(OC(=O)c2ccco2)c2ccccc2)cc1", "note": "(stereo not given)", "Potency": "inconclusive: 39.8 µM [inhibitor, single point]"},
      {"compound": "COCCn1c(SCC(=O)NC2CC2)nnc1-c1ccc(Cl)cc1", "Potency": "inconclusive: 35.5 µM [inhibitor, single point]"},
      {"compound": "COc1ccc(-c2nc(C)c(CCNC(=O)c3cccc(C)c3)s2)cc1OC", "activity, negative = inhibition": "inactive: 14.5%"},
      {"compound": "CN(C)CCCNc1oc(/C=C/c2ccccc2)nc1C#N", "Potency": "inconclusive: 79.4 µM [inhibitor, partial curve, poor fit]"},
      {"compound": "CCOc1ccc(C2C(C(=O)Nc3ccc(C)cc3C)=C(C)Nc3c(C(=O)Nc4ccc(C)cc4)cnn32)cc1OC", "note": "(stereo not given)", "Potency": "inconclusive: 2.51 µM [inhibitor, partial curve]"},
      {"compound": "CCOC(=O)Cc1csc(CC(N)=O)n1", "Potency": "active: 50.1 µM"},
      {"compound": "Cc1ccc(S(=O)(=O)N/N=C2/CC(=O)CC(C)(C)C2)cc1[N+](=O)[O-]", "activity, negative = inhibition": "inconclusive: -74.5% [inhibitor]"},
      {"compound": "CN1CCN(c2ccc(NC(=O)N3CCc4ccccc43)cc2)CC1", "Potency": "inconclusive: 56.2 µM [inhibitor, partial curve, poor fit]"},
      {"compound": "C=Cc1ccc(Cn2c(C(=O)O)c(CNCc3cc(OC)ccc3OC)c3ccc(C)cc32)cc1", "Potency": "inconclusive: 6.31 µM [inhibitor, single point]"},
      {"compound": "CCSc1nc2sc3c(c2c(=O)n1-c1ccccc1)CCN(C(C)C)C3", "Potency": "inconclusive: 89.1 µM [inhibitor, single point]"},
      {"compound": "Cc1sc(N)nc1-c1ccc(Oc2ccccc2)cc1", "Potency": "inconclusive: 79.4 µM [inhibitor, single point]"},
      {"compound": "COc1cc(Cl)ccc1OCc1cc(C(=O)N2CC[C@@H]3CCCC[C@H]3C2)no1", "Potency": "inconclusive: 79.4 µM [inhibitor, single point]"},
      {"compound": "CCOc1ccc(NC(=O)c2cccc(N3CCCS3(=O)=O)c2)cc1", "activity, negative = inhibition": "inactive: 7.47%"},
      {"compound": "COc1ccc(/C=C/C(=O)c2cc(Br)ccc2O)cc1OC", "Potency": "active: 25.1 µM"},
      {"compound": "COc1ccc(CNC(=S)Nc2cc(C)ccc2C)cc1", "Potency": "inconclusive: 39.8 µM [inhibitor, single point]"},
      {"compound": "CC(C)CN(C(=O)C1CC1)c1c(N)n(Cc2ccccc2)c(=O)[nH]c1=O", "activity, negative = inhibition": "inactive: -25.4% [at 102 µM]"},
      {"compound": "O=C1c2ccccc2C(Nc2ccccc2)N1Cc1ccc2c(c1)OCO2", "note": "(stereo not given)", "Potency": "inconclusive: 89.1 µM [inhibitor, partial curve, poor fit]"},
      {"compound": "CC(C)CCn1c(=O)c2ccccc2n2c(CN(C)Cc3ccccc3)nnc12", "Potency": "inconclusive: 50.1 µM [inhibitor, partial curve]"},
      {"compound": "O=C1C=CC(=C(c2ccc(O)cc2)c2ccc(O)cc2)C=C1", "activity, negative = inhibition": "inactive: 22% [at 2.33 µM]"},
      {"compound": "CCc1ccc2oc(C(=O)N3CCN(c4ccc(OC)cc4)CC3)cc(=O)c2c1", "Potency": "inconclusive: 2.51 µM [inhibitor, full curve]"},
      {"compound": "N#Cc1ccc(OCC(=O)NCC2COc3ccccc3O2)cc1", "note": "(stereo not given)", "activity, negative = inhibition": "inactive: 20.7% [at 12.7 µM]"},
      {"compound": "CCC(C)NCCOCCOc1ccc(Cl)c2ccccc12", "note": "(stereo not given)", "Potency": "active: 12.6 µM"},
      {"compound": "O=[N+]([O-])c1ccc(N/N=C/c2sc(N3CCOCC3)nc2-c2ccccc2)c(S(=O)(=O)Nc2ccccc2Cl)c1", "Potency": "active: 70.8 µM"},
      {"compound": "O=C(CCn1nc(-c2ccc(Cl)cc2)ccc1=O)N1CCN(c2ccccn2)CC1", "Potency": "inconclusive: 50.1 µM [inhibitor, partial curve, poor fit]"},
      {"compound": "Cc1[nH]nc2c1C1(C(=O)Nc3ccc([N+](=O)[O-])cc31)C(C#N)=C(N)O2", "note": "(stereo not given)", "Potency": "inconclusive: 28.2 µM [inhibitor, partial curve, poor fit]"},
      {"compound": "CN1CCN(c2nc(-c3cccs3)nc3ccccc23)CC1", "Potency": "inconclusive: 22.4 µM [inhibitor, single point]"},
      {"compound": "COC(=O)c1cc2sccc2n1Cc1ccc(F)cc1", "activity, negative = inhibition": "inactive: 75.3%"},
      {"compound": "COCCN(C(=O)CSc1ncccn1)c1c(N)n(Cc2ccccc2)c(=O)[nH]c1=O", "activity, negative = inhibition": "inactive: -8.7% [at 102 µM]"},
      {"compound": "COc1ccc(CCn2c(=O)[nH]c3cc(C(=O)NCCN4CCOCC4)ccc3c2=O)cc1OC", "Potency": "inconclusive: 22.4 µM [inhibitor, partial curve, poor fit]"},
      {"compound": "C[C@@H]1NC(=O)c2cc([N+](=O)[O-])cc(I)c2OCC[C@@H](C(N)=O)NC(=O)[C@H](CCCCN)NC1=O", "Potency": "active: 44.7 µM"},
      {"compound": "CC(C)CC(c1nnnn1C(C)C)N1CCN(c2ccccc2)CC1", "note": "(stereo not given)", "activity, negative = inhibition": "inactive: 3.43% [at 102 µM]"},
      {"compound": "Cc1ccc(S(=O)(=O)CCC(=O)Nc2sccc2C#N)cc1", "Potency": "active: 25.1 µM"},
      {"compound": "CN1CCN(S(=O)(=O)c2ccc3[nH]cc(C(=O)O)c(=O)c3c2)CC1", "Potency": "active: 56.2 µM"},
      {"compound": "CC(=O)N(CCCN1CCOCC1)Cc1ccncc1", "Potency": "active: 50.1 µM"},
      {"compound": "Cc1nc(C)c(-c2csc(NCc3ccccc3)n2)s1", "Potency": "active: 50.1 µM"},
      {"compound": "CC(C)Cc1cc(C(=O)N(C)C2CCCN(Cc3ccccc3F)C2)n(C)n1", "note": "(stereo not given)", "Potency": "active: 89.1 µM"},
      {"compound": "CCOc1ccc(N2C(=O)c3cccnc3C2Nc2ccc(Cl)cc2)cc1", "note": "(stereo not given)", "activity, negative = inhibition": "inactive: -10.9%"},
      {"compound": "COc1ccc(Br)cc1CNC(=O)CCCn1c(=O)c2cccn2c2cccnc21", "activity, negative = inhibition": "inactive: 5.43%"},
      {"compound": "Cc1cccc(CC(Cc2nc3ccccc3[nH]2)c2nc3ccccc3[nH]2)c1", "note": "(stereo not given)", "Potency": "inconclusive: 0.794 µM [inhibitor, full curve, poor fit]"},
      {"compound": "NC(=S)N/N=C/c1ccccc1", "Potency": "inconclusive: 12.6 µM [inhibitor, partial curve]"},
      {"compound": "Cc1cccc(N2CCN(C(=O)c3ccc4ncsc4c3)CC2)c1C", "activity, negative = inhibition": "inconclusive: -72.3% [inhibitor]"},
      {"compound": "Cc1ccc(C(=O)N/N=C/C=C/c2ccccc2)o1", "Potency": "inconclusive: 39.8 µM [inhibitor, single point]"},
      {"compound": "COc1ccccc1N1CCN(C(=O)c2cc(-c3ccco3)on2)CC1", "Potency": "active: 44.7 µM"},
      {"compound": "O=C(CCn1c(=S)[nH]c2ccccc2c1=O)N1CCOCC1", "Potency": "inconclusive: 56.2 µM [inhibitor, partial curve, poor fit]"},
      {"compound": "COc1ccc(/C=N/n2cnc3c([nH]c4ccc(C)cc43)c2=O)cc1CN1CCCC1", "Potency": "inconclusive: 31.6 µM [inhibitor, single point]"},
      {"compound": "O=C(OCC(=O)C12CC3CC(CC(C3)C1)C2)c1cccnc1Cl", "activity, negative = inhibition": "inactive: 32.9%"},
      {"compound": "Cc1cccc(Cl)c1OCCCN1CCOCC1", "Potency": "active: 10 µM"},
      {"compound": "C/C(=N\\NC(=O)c1cccc(Cl)c1)C1C(=O)c2ccccc2C1=O", "Potency": "inconclusive: 7.94 µM [inhibitor, partial curve]"},
      {"compound": "COc1ccc(-c2noc(-c3ccccc3OCC(=O)Nc3ccc(C(C)=O)cc3)n2)cc1", "Potency": "inconclusive: 25.1 µM [inhibitor, single point]"},
      {"compound": "NC(=O)NC(CC(=O)NNC(=O)c1ccccn1)c1ccc(Cl)cc1", "note": "(stereo not given)", "activity, negative = inhibition": "inactive: 54.7% [at 12.7 µM]"}
    ]}
  ]
}
